US20240076343A1 (CEPHALON, published 2024)
Positions count from the first letter of the chain named. Numbers in names are those of the source. Blank lines part the entries; values can stand above or below the binder they belong to.

Experiments:
Test in all cases: cell-based or functional assay
[1] = target: T1, intermediate-affinity hIL-2 receptor (IL-2Rβγ) on TF1+IL-2Rβ cells (human, UniProt P14784 27-551; P31785 23-369)
T1 sequence 1: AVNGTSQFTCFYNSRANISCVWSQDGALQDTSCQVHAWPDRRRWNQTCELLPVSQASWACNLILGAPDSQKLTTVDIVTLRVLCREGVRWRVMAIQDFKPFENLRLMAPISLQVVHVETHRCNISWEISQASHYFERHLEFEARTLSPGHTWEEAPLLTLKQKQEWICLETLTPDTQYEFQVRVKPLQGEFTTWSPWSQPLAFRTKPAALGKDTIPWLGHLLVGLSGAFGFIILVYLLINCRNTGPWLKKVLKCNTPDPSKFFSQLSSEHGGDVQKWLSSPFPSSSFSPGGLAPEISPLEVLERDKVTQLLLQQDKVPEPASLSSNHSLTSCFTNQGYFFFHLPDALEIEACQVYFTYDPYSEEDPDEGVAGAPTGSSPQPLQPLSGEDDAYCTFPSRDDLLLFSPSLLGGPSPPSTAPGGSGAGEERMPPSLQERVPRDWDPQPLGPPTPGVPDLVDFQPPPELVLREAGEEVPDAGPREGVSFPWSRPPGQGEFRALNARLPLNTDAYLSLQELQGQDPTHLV
T1 sequence 2: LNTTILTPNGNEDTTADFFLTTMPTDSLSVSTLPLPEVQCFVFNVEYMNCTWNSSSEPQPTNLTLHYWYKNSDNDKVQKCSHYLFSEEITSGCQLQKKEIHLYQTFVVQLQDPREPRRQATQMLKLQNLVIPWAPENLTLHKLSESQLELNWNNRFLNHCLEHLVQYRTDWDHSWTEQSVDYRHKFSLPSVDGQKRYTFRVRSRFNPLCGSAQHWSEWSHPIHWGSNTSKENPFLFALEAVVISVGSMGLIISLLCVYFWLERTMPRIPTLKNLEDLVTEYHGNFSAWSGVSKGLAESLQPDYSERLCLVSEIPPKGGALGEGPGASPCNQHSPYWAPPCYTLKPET

[2] = target: T1, intermediate-affinity hIL-2 receptor …; remark: listed apart in the source
[3] = target: T2, high-affinity hIL-2 receptor (IL-2Rαβγ) on NK-92 cells (human, UniProt P01589 22-272; P14784 27-551; P31785 23-369)
T2 sequence 1: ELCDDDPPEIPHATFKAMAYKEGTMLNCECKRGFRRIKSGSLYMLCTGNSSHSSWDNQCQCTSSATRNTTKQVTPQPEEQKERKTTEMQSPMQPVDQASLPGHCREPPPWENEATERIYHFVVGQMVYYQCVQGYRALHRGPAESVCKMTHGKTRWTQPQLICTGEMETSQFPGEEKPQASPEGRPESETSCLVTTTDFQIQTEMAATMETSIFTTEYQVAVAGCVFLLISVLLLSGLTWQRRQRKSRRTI
T2 sequence 2: T1 sequence 1
T2 sequence 3: T1 sequence 2

- Agonistic Activity (TF1 + IL-2Rβ) [1]: 70%
- Fold change from rhIL-2 (TF1 + IL-2Rβ) [1]: ~8460 fold
- Fold decrease from rhIL-2 (TF1 + IL-2Rβ + hPD-1) [2]: ~0 fold
B1: OMC.1.B6-hIgG4-L6-hIL-2 (D20A/R38E) (other)
heavy: EVQLLESGGGLVQPGGSLRLSCAASGFTFSSNYMSWVRQAPGKGLEWVSAISSSGGTIFYADSVKGRFTISRDNSKNTLYLQMNSLRAEDTAVYYCAKHKWNAVYYDGMDVWGQGTTVTVSSASTKGPSVFPLAPCSRSTSESTAALGCLVKDYFPEPVTVSWNSGALTSGVHTFPAVLQSSGLYSLSSVVTVPSSSLGTKTYTCNVDHKPSNTKVDKRV[not shown - about 350 residues with a human IgG4 Fc]
light: QSVLTQPPSASGTPGQRVTISCSGSNSNIGRNLVNWYQQLPGTAPKLLIYTIDQRPSGVPDRFSGSKSGTSASLVISGLQSEDEADYYCAAWDGSLNAWVFGGGTKLTVLGQPKAAPSVTLFPPSSEELQANKATLVCLISDFYPGAVTVAWKADSSPVKAGVETTTPSKQSNNKYAASSYLSLTPEQWKSHRSYSCQVTHEGSTVEKTVAPTECS

- Agonistic Activity (TF1 + IL-2Rβ) [1]: 70%
- Fold change from rhIL-2 (TF1 + IL-2Rβ) [1]: > 10000 fold
- Fold decrease from rhIL-2 (TF1 + IL-2Rβ + hPD-1) [2]: ~0 fold
B2: OMC.1.D6-hIgG4-L6-hIL-2 (D20A/R38E) (other)
heavy: EVQLLESGGGLVQPGGSLRLSCAASGFTFSDYYMSWVRQAPGKGLEWVSAISSSGGTIFYADSVKGRFIISRDNSKNTLYLQMNSLRAEDTAVYYCAKHKWNDVYYDAMDVWGQGTTVTVSSASTKGPSVFPLAPCSRSTSESTAALGCLVKDYFPEPVTVSWNSGALTSGVHTFPAVLQSSGLYSLSSVVTVPSSSLGTKTYTCNVDHKPSNTKVDKRV[not shown - about 350 residues with a human IgG4 Fc]
light: B1 light with I52V, V75A, Q80A, G94S, A98S

- Agonistic Activity (TF1 + IL-2Rβ) [1]: 80%
- Fold change from rhIL-2 (TF1 + IL-2Rβ) [1]: ~7420 fold
- Fold decrease from rhIL-2 (TF1 + IL-2Rβ + hPD-1) [2]: ~1 fold
B3: 1D5-hIgG4-df-hIL-2 (D20A/R38E) (other)
heavy: EVQLLESGGGLVQPGGSLRLSCVGSGFNFKDYCMTWVRQAPGKGLEWVSAIVYSGGSTYYADSVKGRFTISRDNSKNTLYLQMNSLRAEDTAVYYCAKYTRGSYFYDAMDVWGQGTTVTVSSASTKGPSVFPLAPCSRSTSESTAALGCLVKDYFPEPVTVSWNSGALTSGVHTFPAVLQSSGLYSLSSVVTVPSSSLGTKTYTCNVDHKPSNTKVDKRV[not shown - about 350 residues with a human IgG4 Fc]
light: EIVLTQSPGTLSLSPGERATLSCRASQSIGRSFLAWYQQKPGQAPRLLIYDASTRATDIPDRFSGSGSGTEFTLTISSLQSEDFAVYYCQQYYDWPPLTFGGGTKVEIKRTVAAPSVFIFPPSDEQLKSGTASVVCLLNNFYPREAKVQWKVDNALQSGNSQESVTEQDSKDSTYSLSSTLTLSKADYEKHKVYACEVTHQGLSSPVTKSFNRGEC

- Agonistic Activity (TF1 + IL-2Rβ) [1]: 20%
B4: 1D5-hIgG4-LAGA-df-hIL-2 (T3A/D20A/R38E/C125A) (other)
heavy: EVQLLESGGGLVQPGGSLRLSCVGSGFNFKDYCMTWVRQAPGKGLEWVSAIVYSGGSTYYADSVKGRFTISRDNSKNTLYLQMNSLRAEDTAVYYCAKYTRGSYFYDAMDVWGQGTTVTVSSASTKGPSVFPLAPCSRSTSESTAALGCLVKDYFPEPVTVSWNSGALTSGVHTFPAVLQSSGLYSLSSVVTVPSSSLGTKTYTCNVDHKPSNTKVDKRV[not shown - human IgG4 Fc with S228P L235A G237A (EU numbers)]APASSSTKKTQLQLEHLLLALQMILNGINNYKNPKLTEMLTFKFYMPKKATELKHLQCLEEELKPLEEVLNLAQSKNFHLRPRDLISNINVIVLELKGSETTFMCEYADETATIVEFLNRWITFAQSIISTLT
light: B3 light

- Fold change from rhIL-2 (TF1 + IL-2Rβ) [1]: > 10000 fold
- Fold change from rhIL-2 (NK-92) [3]: ~811 fold
B5: A2-hIgG4-df-hIL-2 (D20A/R38E) (other)
heavy: DVQLVESGGGLVQPGGSLRLSCAASGFTFDISAMSWVRQAPGKGLEWVSTISGSAYSTYYADSVKGRFTISRDNSKSTLYLQMNSLRAEDTAVYYCAREIFSDYWGLGTLVTVSSASTKGPSVFPLAPCSRSTSESTAALGCLVKDYFPEPVTVSWNSGALTSGVHTFPAVLQSSGLYSLSSVVTVPSSSLGTKTYTCNVDHKPSNTKVDKRV[not shown - about 350 residues with a human IgG4 Fc and changes]
light: QSVLTQPPSASGTPGQRVTISCSGSTSNIGRESVYWYQQLPGTAPKLLIYSNVQRPSGAPNRFSGSKSGTSASLAISGLQSEDEADYYCGTWDDSLNGWVFGGGTKLTVLGQPKAAPSVTLFPPSSEELQANKATLVCLISDFYPGAVTVAWKADSSPVKAGVETTTPSKQSNNKYAASSYLSLTPEQWKSHRSYSCQVTHEGSTVEKTVAPTECS

- Agonistic Activity (TF1 + IL-2Rβ) [1]: 50%
- Fold change from rhIL-2 (TF1 + IL-2Rβ) [1]: > 10000 fold
- Agonistic Activity (NK-92) [3]: 20%
- Fold change from rhIL-2 (NK-92) [3]: > 10000 fold
- Fold decrease from rhIL-2 (TF1 + IL-2Rβ + hPD-1) [2]: ~1 fold
B6: G12-hIgG4-df-hIL-2 (D20A/R38E) (other)
heavy: DSLVESGGGLVQPGGSLRLSCAASGFTFDISAMSWVRQAPGKGLEWVSTISGSAYSTYYADSVKGRFTISRDNSKSTLYLQMNSLRAEDTAVYYCAREIFSDYWGLGTLVTVSSASTKGPSVFPLAPCSRSTSESTAALGCLVKDYFPEPVTVSWNSGALTSGVHTFPAVLQSSGLYSLSSVVTVPSSSLGTKTYTCNVDHKPSNTKVDKRV[not shown - about 350 residues with a human IgG4 Fc]
light: B5 light with S51L, V53S, A59V, N61D, E84V

- Fold change from rhIL-2 (TF1 + IL-2Rβ) [1]: ~7040 fold
- Fold decrease from rhIL-2 (TF1 + IL-2Rβ + hPD-1) [2]: ~0 fold
B7: A2-hIgG4-df-hIL-2 (D20S/R38E) (other)
heavy: DVQLVESGGGLVQPGGSLRLSCAASGFTFDISAMSWVRQAPGKGLEWVSTISGSAYSTYYADSVKGRFTISRDNSKSTLYLQMNSLRAEDTAVYYCAREIFSDYWGLGTLVTVSSASTKGPSVFPLAPCSRSTSESTAALGCLVKDYFPEPVTVSWNSGALTSGVHTFPAVLQSSGLYSLSSVVTVPSSSLGTKTYTCNVDHKPSNTKVDKRV[not shown - about 350 residues with a human IgG4 Fc and changes]
light: B5 light

- Agonistic Activity (TF1 + IL-2Rβ) [1]: 40%
- Fold change from rhIL-2 (TF1 + IL-2Rβ) [1]: > 10000 fold
- Agonistic Activity (NK-92) [3]: 20%
- Fold change from rhIL-2 (NK-92) [3]: > 10000 fold
- Fold decrease from rhIL-2 (TF1 + IL-2Rβ + hPD-1) [2]: ~1 fold
B8: D12-hIgG4-df-hIL-2 (D20A/R38E) (other)
heavy: DVQLVESGGGLVQPGGSLRLSCAASGFTFDISAMSWVRQAPGKGLEWVSTISGSAYSTYYADSVKGRFTISRDNSKSTLYLQMNSLRAEDTAVYYCAREIFSDYWGLGTLVTVSSASTKGPSVFPLAPCSRSTSESTAALGCLVKDYFPEPVTVSWNSGALTSGVHTFPAVLQSSGLYSLSSVVTVPSSSLGTKTYTCNVDHKPSNTKVDKRV[not shown - about 350 residues with a human IgG4 Fc]
light: B5 light with S25N, A59V, N61D

- Agonistic Activity (TF1 + IL-2Rβ) [1]: 90%
B9: A2-hIgG4-df-hIL-2 (R38E/D84K) (other)
heavy: DVQLVESGGGLVQPGGSLRLSCAASGFTFDISAMSWVRQAPGKGLEWVSTISGSAYSTYYADSVKGRFTISRDNSKSTLYLQMNSLRAEDTAVYYCAREIFSDYWGLGTLVTVSSASTKGPSVFPLAPCSRSTSESTAALGCLVKDYFPEPVTVSWNSGALTSGVHTFPAVLQSSGLYSLSSVVTVPSSSLGTKTYTCNVDHKPSNTKVDKRV[not shown - about 350 residues with a human IgG4 Fc and changes]
light: B5 light

- Agonistic Activity (NK-92) [3]: 70%
- Fold change from rhIL-2 (NK-92) [3]: > 10000 fold
- Fold decrease from rhIL-2 (TF1 + IL-2Rβ + hPD-1) [2]: ~0 fold
B10: OMC476pG10-hIgG4-df-hIL-2 (D20A/R38E) (other)
heavy: DVQLVESGGGVVRPGGSLRLSCAASGFTFSIYAMSWVRQAPGEGLEWVSHISASGGSTYYADSVKGRFAISRDNSKNTLYLQMNSLRAEDTAVYYCTTNLGSDYWGLGTLVTVSSASTKGPSVFPLAPCSRSTSESTAALGCLVKDYFPEPVTVSWNSGALTSGVHTFPAVLQSSGLYSLSSVVTVPSSSLGTKTYTCNVDHKPSNTKVDKRV[not shown - about 350 residues with a human IgG4 Fc]
light: QSVLTQPPSASGTPGQRVTISCSGSYSDIGTNYVYWYQQLPGTAPKLLIFATDRRPSGVPDRFSGSKSGTSASLAISGLQSEDEADYYCGTWDDSLNVWVFGGGTKLTVLGQPKAAPSVTLFPPSSEELQANKATLVCLISDFYPGAVTVAWKADSSPVKAGVETTTPSKQSNNKYAASSYLSLTPEQWKSHRSYSCQVTHEGSTVEKTVAPTECS
